# ± gives the standard deviation. The entries are a selection whose mix differs from that of the whole data set.
# System: MIWI (PIWIL1) piRISC loaded with piRNA #1 (30 nt)
# Test: pre-steady-state target cleavage rate (min^-1); MIWI and MILI are mouse PIWI proteins and EfPiwi is from a freshwater sponge; tags in brackets are library labels; higher = faster piRNA-guided slicing of the target
# Settings: guide: piRNA #1 5'p-UGAGGUAGUAGGUUGUAUAGUAUCCAGAGG; auxiliary factor: 500 nM mouse GTSF1
# Method in brief: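 Three pooled Cleave-'n-Seq trials supplied the data, with k3 capped at 0.0001 min^-1. In each, […] transcribed, DNA-blocked target RNA library and 1 nM active affinity-purified piRISC with one synthetic guide reacted in HEPES–potassium acetate buffer at 33 °C for 0–8 or 0–960 min, with or without 500 nM GTSF1 partner protein. Uncleaved targets were sequenced and normalised to depth and to weakly complementary targets. A burst-and-steady-state fit provided the pre-steady-state cleavage rate.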
# 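Note: 1 nM active piRISC with 0.1 nM target library at 33 °C single turnover.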
row,Sequence,pre-steady-state target cleavage rate
1,GGAGUCGAUACUAUACAAGCUACUACCUCA,0.442 ± 0.025
2,GGAGUGGAUACUUUACAACCUACUACCACA,0.251 ± 0.024
3,CCUCUGGAAACUAUACAACCAACUACCUCA,0.172 ± 0.022
4,GGAGACCAUACUAUACAACCUUCUAGCUCA,0.167 ± 0.027
5,GGUCUGGAUAGUAUACAACCAACUACCUCA,0.0834 ± 0.0079
6,GCACUGGAUACUAAACAACCUACUACCUCA,1.87 ± 0.1
7,GGAGUGGAUACUAUACAACCAACUACCUCA,0.148 ± 0.012
8,GGUCUGGAUACUAAACAACCUACUACCUGA,0.742 ± 0.13
9,GGUGUGGAUUCUAUACAACCUACUACCUCA,1.83 ± 0.12
10,GCUCUGGAUACUAUUCAACCUAGUACCUCA,0.363 ± 0.051
11,GGAGUGGAUACUAUACAACCAUGUACCUCA,0.00875 ± 0.0027
12,GGAGACGAUACUAAACAACCAACUACCUCA,0.105 ± 0.012
13,GGACUCGAUACUAUUCAACCUACUACCUCA,1.54 ± 0.1
14,CCUCUGGAUACUAUACUACCUAGUACCUCA,0.16 ± 0.034
15,CCUCUGGUAUCUAUACAACCUACUACCUCA,1.18 ± 0.055
16,GGUCUGGAUACUAUACAACCAACUACCACA,0.112 ± 0.012
